# ± gives the standard error. Variants at the floor of the assay are shown more often than the library holds them.
# B1: glmS ribozyme (parent)
# chain: AUAAAAGCGCCAGAACUACAGAAAUGUAGUUGACGAGGAGGAGGUUUAUCGAAUUUUCGGCGGAUGCCUCCAAA
# Variants of: B1
# Assay: self-cleavage kobs at 2500 uM GlcN6P; higher = faster cleavage; RNA array
# Details: with glucosamine-6-phosphate
# In short: (§1)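 The measurements used barcoded ribozyme variants on sequenced MiSeq chips, transcribed in situ by E. coli RNA polymerase and tracked at 37 °C with a hybridised Cy3 probe. Glucosamine-6-phosphate, 40 μM to 10 mM in HEPES/KCl/Mg(OAc)2 buffer, was flowed in while tiles were imaged over ~14 h. Baseline-normalised signals, also normalised to non-cleaving reference variants, gave per-tile medians that were fit to one- or two-exponential decays for kobs. kcat and KM resulted from weighted Michaelis–Menten fits across concentrations.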
row,Variant,self-cleavage kobs at 2500 uM GlcN6P [s⁻¹]
1,AUAAAAGCGCCAGAACUACAGAAAUGUAGUUGACGAGGAGGCGGCUUUUCGAAUUUUCGGAGGAUGCCUCCAAA [A42C U45C A48U C61A],< 1e-05
2,AUAAAAGCGCCAGAACUACAGAAAUGUAGUUGCCGAUGAGGAGGUUUAUCGAAUUUUCGGCGUAUGCCUCCAAA [A33C G37U G63U],< 1e-05
3,AUAAAAGCGCCAGAACUACAGAAAUGUAGUUGACAAGGUGGAGGUUUACCGUAUUUUCGGCGGAUGCCUCCAAA [G35A A39U U49C A52U],< 1e-05
4,AUAAAAGCGCCAGAACUACAGAAAUGUAGUUGACCAGGAGGAGUUUUAUCGAAUUUUCGGCGUAUUGCUCCAAA [G35C G44U G63U G66U C67G],< 1e-05
5,AUAAAAGCGCCAGAACUACAGAAAUGUAGUUGACCAGGAGCAGGUCUAUCGAAUUUUCGGCGGAUGCCUCCAAA [G35C G41C U46C],< 1e-05
6,AUAAAAGCGCCAGAACUACAGAAAUGUAGUUGAUGAGGAGGAGGUUUAACGAAUUUUCGGCGGAUGCCUCCAAA [C34U U49A],< 1e-05
7,AUAAAAGCGCCAGAACUACAGAAAUGUAGUUGACGAAGAGGAGUUUUAUCGAAUUUUCGCCGGUUUCCUCGAAA [G37A G44U G60C A64U G66U C71G],< 1e-05
8,AUAAAAGCGCCAGAACUACAGAAAUGUAGUUGCCGAGGAGGACGUUUAUCGAAUUUUCGGAGGUUGCCUUCAAA [A33C G43C C61A A64U C70U],< 1e-05
9,AUAAAAGCGCCAGAACUACAGAAAUGUAGUUGACGUGGAGGAGGAAUAUCGAAUUUUCGGCGGAUGCCACCAAA [A36U U45A U46A U69A],< 1e-05
10,AUAAAAGCGCCAGAACUACAGAAAUGUAGUUGACGAGGAGGUGGUUUAUCGAUUUUUCAGCGGAUGCCUCCAAA [A42U A53U G59A],< 1e-05
11,AUAAAAGCGCCAGAACUACAGAAAUGUAGUUGAGGAGGAGGAGGUUUAUCGAAUUUUCAGCGGAUGCCUCCAAA [C34G G59A],< 1e-05
12,AUAAAAGCGCCAGAACUACAGAAAUGUAGUUGACGAGGAGAAGGUUGAUCGAAUUUUCGGCGGAUGCCUGCAAA [G41A U47G C70G],9.9e-05 ± 3.6e-05
13,AUAAAAGCGCCAGAACUACAGAAAUGUAGUUGUCGAGGAGGAGCUUUAUCGAAUUAUCGGCGGAUGCCCCCAAA [A33U G44C U56A U69C],< 1e-05
14,AUAAAAGCGCCAGAACUACAGAAAUGUAGUUGACGAGUAGGAAGGUUAUCGAAUUUUCGGCGGAUGCCUCCAAA [G38U G43A U45G],< 1e-05
15,AUAAAAGCGCCAGAACUACAGAAAUGUAGUUUACGAGGACGAGGUUUAACGAAUUUUCGGCGCAUGCCUCCAAA [G32U G40C U49A G63C],< 1e-05
16,AUAAAAGCGCCAGAACUACAGAAAUGUAGUUGACGUGGAGGAGCUUUAUCGAAUUUUCGGCGGAUGCCACCAAA [A36U G44C U69A],< 1e-05

row,Variant,self-cleavage kobs at 2500 uM GlcN6P [s⁻¹]
1,AUAAAAGCGCCAGAACUACAGAAAUGUAGUUGACCAGGAGGAGGUUUAUCGAAUUAUCGGCGGAUGCUUCCAAA [G35C U56A C68U],< 1e-05
2,AUAAAAGCGCCAGAACUACAGAAAUGUAGUUUACGAGGAGGAGAUUUAUCGAAUUUUCUGCGGAUGCCUCCAAA [G32U G44A G59U],< 1e-05
3,AUAAAAGCGCCAGAACUACAGAAAUGUAGUUGGCGAGGAGGUGGUUUAUCGAAUUCUCGGCGGAUGCCUCCAAA [A33G A42U U56C],< 1e-05
4,AUAAAAGCGCCAGAACUACAGAAAUGUAGUUGAACAGGAGGUGGUUUAUCGAAUUUUCGGCGGAUGCCUACAAA [C34A G35C A42U C70A],< 1e-05
5,AUAAAAGCGCCAGAACUACAGAAAUGUAGUUGACUAGCAGGAGUUUUAUCGAAUUUUCGACGGAUGCCUCCAAA [G35U G38C G44U G60A],< 1e-05
6,AUAAAAGCGCCAGAACUACAGAAAUGUAGUUGACGAGUAGGAGGUUUAUGGAAUUUUCGGCGGAUGCCUCCAAA [G38U C50G],6.94e-05 ± 1.4e-05
7,AUAAAAGCGCCAGAACUACAGAAAUGUAGUUGAAGAGGAGGAGGUUUACCGAAUUUUCAGCGCAUGCCUCCAAA [C34A U49C G59A G63C],< 1e-05
8,AUAAAAGCGCCAGAACUACAGAAAUGUAGUUGACAAGGAGGAGGUUUAUCGAAAUCUCGCCGGAUGCCUCCAAA [G35A U54A U56C G60C],< 1e-05
9,AUAAAAGCGCCAGAACUACAGAAAUGUAGUUGACGACGAGGUGGUUUAUCAAAUUUUCGGCGGAUGCCUCCAAA [G37C A42U G51A],< 1e-05
10,AUAAAAGCGCCAGAACUACAGAAAUGUAGUUGACGAAGAAGAGGUUUAUCGAAUUUUCAGCGGAUGCCUCCAAA [G37A G40A G59A],< 1e-05
11,AUAAAAGCGCCAGAACUACAGAAAUGUAGUUGACGAGGCGGAGGUUUAUCAAAUUUUCGGCGGAUGCCUCCAAA [A39C G51A],< 1e-05
12,AUAAAAGCGCCAGAACUACAGAAAUGUAGUUGACGAGCAGGAGGUUUAUCGAAUUUUUGGCGGAUACCUCCAAA [G38C C58U G66A],< 1e-05
13,AUAAAAGCGCCAGAACUACAGAAAUGUAGUUCACGAGGAGGAGGUUAAUCGAAUUUUCGGCGGAUGCCUCCAAA [G32C U47A],2.87e-05 ± 1.3e-05
14,AUAAAAGCGCCAGAACUACAGAAAUGUAGUUGACGAGGAGGUGGUUGAUCGAAUUUUCGGCGGAUGCCACCAAA [A42U U47G U69A],0.0115 ± 0.0021
15,AUAAAAGCGCCAGAACUACAGAAAUGUAGUUGACGAGGAGCAGGAUUAUCGAAUUGUCGGCGGAUGGCUGCAAA [G41C U45A U56G C67G C70G],0.00118 ± 0.00023
16,AUAAAAGCGCCAGAACUACAGAAAUGUAGUUGACGAGGAGGUGGUUUAUCGAAUCUUCCGCGGAUGACUCCAAA [A42U U55C G59C C67A],< 1e-05

# Variants of: B1
# Assay: self-cleavage kobs at 10000 uM GlcN6P; higher = faster cleavage; RNA array
# Details: with glucosamine-6-phosphate
# In short: as §1
row,Variant,self-cleavage kobs at 10000 uM GlcN6P [s⁻¹]
1,AUAAAAGCGCCAGAACUACAGAAAUGUAGUUGAUGAGGAGGAGGUUUAACGAAUUUUCGGCGGAUGCCUCCAAA [C34U U49A],< 1e-05
2,AUAAAAGCGCCAGAACUACAGAAAUGUAGUUGCCGAGGAGGACGUUUAUCGAAUUUUCGGAGGUUGCCUUCAAA [A33C G43C C61A A64U C70U],< 1e-05
3,AUAAAAGCGCCAGAACUACAGAAAUGUAGUUGAGGAGGAGGAGGUUUAUCGAAUUUUCAGCGGAUGCCUCCAAA [C34G G59A],< 1e-05
4,AUAAAAGCGCCAGAACUACAGAAAUGUAGUUGUCGAGGAGGAGCUUUAUCGAAUUAUCGGCGGAUGCCCCCAAA [A33U G44C U56A U69C],< 1e-05
5,AUAAAAGCGCCAGAACUACAGAAAUGUAGUUGACGAGGCGGAGGUUUAUCAAAUUUUCGGCGGAUGCCUCCAAA [A39C G51A],< 1e-05
